The record followed here is publication PMC6919601, “Identification of Plasmodium dipeptidyl aminopeptidase allosteric inhibitors by high throughput screening” (PLoS ONE, 2019).

The whole screen tested about 110,000 compounds, of which about 230 (0.21%) showed an effect of 50% or more. The list shows a part of the results.
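Also: 30 min substrate incubation versus DMSO and 10 µM JCP410 controls.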

The target of the experiment is DPAP1 (Plasmodium falciparum, UniProt Q8IIJ9). The experiment can be described thus: primary screen, percent inhibition; read by cleavage of a fluorogenic dipeptide substrate; higher = more effect of the substance. More on the design: species or system P. falciparum D10 trophozoite lysates; single well.
DPAP1, sequence (Q8IIJ9 whole entry, looked up): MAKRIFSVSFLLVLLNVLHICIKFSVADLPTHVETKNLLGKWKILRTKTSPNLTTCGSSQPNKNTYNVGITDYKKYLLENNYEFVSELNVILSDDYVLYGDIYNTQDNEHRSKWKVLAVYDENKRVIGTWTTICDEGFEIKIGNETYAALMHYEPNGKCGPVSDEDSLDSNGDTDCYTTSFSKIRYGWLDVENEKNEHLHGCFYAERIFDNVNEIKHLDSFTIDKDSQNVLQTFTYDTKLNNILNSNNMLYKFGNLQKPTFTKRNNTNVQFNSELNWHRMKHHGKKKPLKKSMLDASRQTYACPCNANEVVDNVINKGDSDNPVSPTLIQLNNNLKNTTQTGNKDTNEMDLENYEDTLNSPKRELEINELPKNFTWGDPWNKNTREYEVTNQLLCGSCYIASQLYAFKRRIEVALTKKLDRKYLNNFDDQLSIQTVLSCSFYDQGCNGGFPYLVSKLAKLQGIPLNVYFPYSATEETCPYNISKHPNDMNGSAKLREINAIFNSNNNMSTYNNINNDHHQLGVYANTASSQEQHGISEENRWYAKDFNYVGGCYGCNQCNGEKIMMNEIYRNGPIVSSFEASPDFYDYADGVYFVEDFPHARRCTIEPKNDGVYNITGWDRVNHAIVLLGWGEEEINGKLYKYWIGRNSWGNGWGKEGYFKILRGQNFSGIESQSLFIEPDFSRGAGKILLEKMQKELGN
In the case of `O=[N+]([O-])c1ccc(-c2ncnn2-c2ccccc2)cc1`, the “% Inhibition @ 10 uM” value was -1.96%.
As for `O=C(O)c1cc(-c2cc(Cl)ccc2O)nc2[nH]nc(-c3ccccc3)c12`, the figure is 13.2%; as for `O=C1Cc2ccccc2Sc2ccc(O)cc21`, -2.98%.
As for `CNc1sc(C(=O)c2ccc(OC)cc2)c(N)c1C#N`, the figure is 1.84%; as for `c1ccc2sc(N3CCN(Cc4ccc5c(c4)OCO5)CC3)nc2c1`, -2.94%; as for `Cc1ccccc1-c1[nH]c2c(C#N)cnn2c1NC1CCCCC1`, 0.596%.
As for `CC1CCCC(NC(=O)CN2N=C(c3ccc(Cl)cc3)CCC2=O)C1C` (stereo not shown), the figure is -1.21%; as for `O=C(NCCC1=CCCCC1)NC1CCCCC1`, -3.26%; as for `CN(C(=O)CCCOc1ccc(Cl)cc1Cl)C1CCCCC1`, -0.351%.
`N#CCNC(=O)C(Cc1ccccc1F)NC(=O)OCc1ccccc1` (stereo not shown): the “% Inhibition @ 10 uM” value is -3.48%.
As for `Cc1ccc2oc(=O)n(CCOc3ccc(Br)cc3)c2c1`, the figure is -2.56%.
As for `Cc1cc(C(=O)O)c(C)cc1OCc1ccccc1`, the figure is -5.21%; as for `O=C(NCC1CCCCC1)NC1CCCN(c2cnccn2)C1` (stereo not shown), 2.41%.
As for `CC1(C)O[C@H]2[C@@H](O1)[C@@H](C(=O)NCc1ccco1)O[C@@H]1OC(C)(C)O[C@@H]12`, the “% Inhibition @ 10 uM” value is on record as 1.64%.
As for `Cc1cc(Cl)ccc1OCC(O)CN1CCC(C)CC1` (stereo not shown), the figure is 1.67%; as for `CCSC(=S)NC1CCS(=O)(=O)C1` (stereo not shown), -2.65%; as for `CC1=CC2=NC(=O)/C(=C\c3ccc(OCc4ccc(F)cc4)cc3)C(=N)N2O1`, -3.23%.
In the case of `Cc1ccc(OCCNC(=O)Cn2cnc3c(=O)n(C)c(=O)n(C)c32)cc1C`, the “% Inhibition @ 10 uM” value was -9.26%.
As for `COc1cc(C(=O)N/C(=C/c2ccc(F)cc2)C(=O)NC(C)C(=O)O)cc(OC)c1OC` (stereo not shown), the figure is 19.7%; as for `N=c1c2c3c(sc2ncn1Cc1ccccc1)CCCCC3`, 2.44%.
Regarding `CC(Cc1ccccc1)[N+]1=NO/C(=N/C(=O)N(C)C)C1` (stereo not shown), the “% Inhibition @ 10 uM” value was 2.56%.
As for `COc1ccc(C(=O)OC2c3ccccc3C(=O)N2Cc2ccccc2Cl)cc1OC` (stereo not shown), the figure is -1.03%; as for `Cc1cccc(N2CCN(C(=O)c3cccs3)CC2)c1C`, 3.01%; as for `CC1CN=C(/C=C(\O)c2cccs2)C(=O)N1` (stereo not shown), -5.08%.
As for `CC(C)NC(=O)C1CN(S(=O)(=O)c2ccccc2)CCN1S(=O)(=O)c1ccccc1` (stereo not shown), the figure is -0.99%; as for `O=C(NCCN1CCOCC1)c1nn2c(C(F)(F)F)cc(-c3ccccc3)nc2c1Br`, -4.02%; as for `Cc1ccc(-c2cnc3c(=O)[nH]c(=O)[nH]c3n2)cc1`, 1.88%.
Consider `Oc1c2c(nc3cc(Cl)ccc13)CCCC2`, for which the “% Inhibition @ 10 uM” value is listed as -3.09%.
Take `Cc1cc2ccccc2n1CCNC(=O)COc1ccc(Cl)cc1Cl`: the “% Inhibition @ 10 uM” value is -5.47%.
As for `O=C1CC(c2ccc(F)cc2)CC(=O)C1=CNCC1NCCc2ccccc21` (stereo not shown), the figure is -1.4%.
As for `O=C(NCc1cccs1)C1CCN(c2nc3ccccc3o2)CC1`, the figure is 5.23%.
As for `O=C1C2C3c4ccccc4C(c4ccccc43)C2C(=O)N1c1ccccc1I` (stereo not shown), the figure is -0.744%.
`CC(=O)C1=C(O)C(=O)N(c2ccc(O)cc2)C1c1cccc(F)c1` (stereo not shown): the “% Inhibition @ 10 uM” value is listed as 2.06%.
As for `CO/C=C(\Oc1ccccc1C)C(=O)Nc1ccc(Cl)cc1`, the figure is 2.73%; as for `CC(NCc1c(C(=O)O)n(Cc2cccc(Cl)c2)c2ccccc12)c1ccccc1` (stereo not shown), 8.05%; as for `COCc1nnc(NC(=O)/C=C/c2cc(OC)c(OC)c(OC)c2)s1`, 26.7%.
As for `Cc1cccc(S(=O)Cc2ccc(C(=O)NCc3ccccc3C)o2)c1` (stereo not shown), the figure is 6.15%.
As for `COc1cc(CNc2ncc(-c3ccccc3)n2C)cc(OC)c1OC`, the figure is 0.627%; as for `O=C(Nc1cccc(Cl)c1)c1ccc([N+](=O)[O-])cc1`, 3.1%; as for `COc1cccc(CN2CCN(Cc3ccccc3C(F)(F)F)CC2)c1OC`, -2.94%.
For `CCOc1ccc(C(=O)NC2CCCCCCC2)cc1`, the “% Inhibition @ 10 uM” value is reported as -1.88%.
As for `CNS(=O)(=O)c1ccc(-c2ccc(C(N[C@H](CC(C)C)C(=O)NCC#N)C(F)(F)F)cc2)cc1` (stereo partly shown), the figure is -4.72%; as for `CN1CCC(N(C)Cc2ccccc2F)CC1`, 3.16%.
As for `O=C(CCc1nc(-c2ccccc2)no1)NC1CCCCC1`, the figure is -3.12%; as for `O=C(NCCCc1ccccc1)c1ccc(Br)o1`, 0.389%; as for `O=C(NCc1ccco1)c1cc(-c2ccco2)nc2ccccc12`, -4.68%.
As for `O=C(NCc1ccc(Cl)cc1)c1cc(-c2ccco2)[nH]n1`, the figure is 1.76%; as for `O=C(O)CCCCCNC(=O)c1cccc(Br)c1`, -5.41%; as for `CC(=O)c1ccc(NC(=O)c2ccccc2C(=O)O)cc1`, -5.46%.
Regarding `Cc1cccc(NS(=O)(=O)Cc2ccccc2)c1C`, the “% Inhibition @ 10 uM” value was -0.582%.
As for `O=C(CS(=O)(=O)Cc1ccccc1)N1CCN(c2cccc(Cl)c2)CC1`, the figure is 3.92%.
As for `CN1CCN(C(=O)CN(c2ccc(F)cc2)S(=O)(=O)c2ccccc2)CC1`, the figure is -2.44%.
